Hit rate of the full screen: of about 310,000 compounds, about 14,000 (4.5%) showed an effect of 50% or more. Effects have a minus sign here. The list shows a part of the results.
Biological target: human ether-à-go-go-related gene (hERG) potassium channel (human, UniProt Q12809)
Assay: primary screen, population patch clamp on CHO cells stably expressing hERG
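Note: peak tail current of the secondary pulse compared with the same well before compound.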

Chain of human ether-à-go-go-related gene (hERG) potassium channel (Q12809 whole entry, looked up): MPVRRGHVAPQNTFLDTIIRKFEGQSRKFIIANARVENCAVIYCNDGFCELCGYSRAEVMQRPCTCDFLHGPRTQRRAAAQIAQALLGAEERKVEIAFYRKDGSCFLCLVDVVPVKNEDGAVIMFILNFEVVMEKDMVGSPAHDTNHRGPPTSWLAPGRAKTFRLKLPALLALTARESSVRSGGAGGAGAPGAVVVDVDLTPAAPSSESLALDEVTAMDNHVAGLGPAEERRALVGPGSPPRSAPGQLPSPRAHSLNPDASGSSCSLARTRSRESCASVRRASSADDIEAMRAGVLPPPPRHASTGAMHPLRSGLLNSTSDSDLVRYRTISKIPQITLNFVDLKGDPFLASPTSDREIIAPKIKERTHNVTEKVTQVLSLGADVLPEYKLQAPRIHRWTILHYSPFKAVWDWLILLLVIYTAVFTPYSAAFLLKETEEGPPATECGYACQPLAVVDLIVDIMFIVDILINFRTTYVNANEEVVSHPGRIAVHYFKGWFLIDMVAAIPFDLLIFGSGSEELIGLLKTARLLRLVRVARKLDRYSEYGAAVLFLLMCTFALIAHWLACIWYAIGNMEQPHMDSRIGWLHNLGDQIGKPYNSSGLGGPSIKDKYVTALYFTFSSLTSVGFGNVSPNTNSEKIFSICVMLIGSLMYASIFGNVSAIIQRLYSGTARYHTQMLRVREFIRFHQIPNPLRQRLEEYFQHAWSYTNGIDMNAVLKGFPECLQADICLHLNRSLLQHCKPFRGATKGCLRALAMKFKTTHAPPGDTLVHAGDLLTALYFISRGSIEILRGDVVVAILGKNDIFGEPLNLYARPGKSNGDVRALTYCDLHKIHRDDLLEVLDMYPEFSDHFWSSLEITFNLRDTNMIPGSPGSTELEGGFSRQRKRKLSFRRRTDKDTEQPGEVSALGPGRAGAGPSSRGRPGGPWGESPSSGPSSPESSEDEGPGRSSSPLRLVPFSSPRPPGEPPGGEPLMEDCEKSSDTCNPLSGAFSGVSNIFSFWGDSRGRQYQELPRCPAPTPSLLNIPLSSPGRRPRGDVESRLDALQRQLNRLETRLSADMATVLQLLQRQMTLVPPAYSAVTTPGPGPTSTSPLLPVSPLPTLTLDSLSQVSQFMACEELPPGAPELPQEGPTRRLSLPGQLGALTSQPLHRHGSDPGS

Point of comparison: `COc1ccc(/C=C/C(=O)NCc2ccccn2)cc1OC`, “hERG current change (%, negative = inhibition) at 10uM” value 11.5%. Against it:
- CC1CCN(c2ccc3nnc(CCC(=O)Nc4cc(F)ccc4F)n3n2)CC1 — lower, -37.5%
- COc1ccccc1CN1CCNC(=O)C1CC(=O)NCCOc1cccnc1 (stereo not drawn) — lower, -2.59%
- Cc1nn(Cc2c(Cl)cccc2Cl)c(C)c1NC(=O)c1cn(-c2ccccc2)nc1-c1ccccc1 — lower, 0.041%
- O=S(=O)(N1CCCCC1)N1CCN(c2ccc(F)cc2)CC1 — lower, -35.9%
- COc1ccc(OC)c(NC(=O)C(=O)NCc2ccncc2)c1 — lower, -12.2%
- Cc1cnc(C(=O)OCC(=O)Nc2ccc(Br)c(C)c2)cn1 — higher, 12.8%
- Cc1cc(C)cc(NC(=O)CCNS(=O)(=O)c2ccc3c(c2)oc(=O)n3C)c1 — lower, -1.91%
- CCc1cccc(CC)c1NC(=O)CSc1nc2ccc(N3C(=O)C4C5C=CC(C5)C4C3=O)cc2s1 (stereo not drawn) — lower, -15.2%
- CN(C)C(=S)Nn1c(-c2ccccc2)nc2ccccc2c1=O — lower, 11%
- O=C(C1CCC(=O)N(C2CC2)C1)N(CCO)Cc1ccccc1 (stereo not drawn) — lower, 9.1%
- Cc1ccc(C2CC(c3cccs3)n3nc(N)nc3N2)cc1 (stereo not drawn) — lower, -19.2%
- Cc1cc(S(=O)(=O)Nc2ccccc2C)ccc1F — lower, -12.3%
- CCOc1ccc(C/C(O)=C2\C(=O)CC(C)(C)CC2=NCC(=O)O)cc1OCC — higher, 19.8%
- O=C(Nc1cccc(F)c1)Nc1ccc2c(c1)C(=O)OC2 — lower, 7.83%
- C[N+]1=C(/C=C/Nc2ccccc2)C(C)(C)c2ccccc21.[O-][Cl+3]([O-])([O-])[O-] — lower, -81.8%
- Cc1cc(O)c(NC(=S)NC(=O)c2ccc(-c3ccc(Cl)cc3)o2)cc1C — lower, 1.28%
- CN(Cc1nc(-c2ccc3c(c2)OCO3)no1)CC1(N2CCOCC2)CCCCC1 — lower, -3.56%
- Cc1cccc(OCCSc2nncn2C)c1 — lower, 6.64%
- CC(C)CCNC(=O)c1c(CSc2ccc(Cl)cc2)noc1C(=O)NCc1ccccc1 — lower, 10.6%
- CNS(=O)(=O)c1cc(N)ccc1C — lower, 3.48%
- Cc1ccc(CNC(=O)CS(=O)CC(=O)O)cc1 (stereo not drawn) — lower, -16.6%
- Cc1cccc(C)c1NS(=O)(=O)c1ccc2c(c1)C(=O)c1ccccc1C2=O — lower, -26%
- CCc1ccc(NC(=O)CSc2nc3ccccc3c(=O)n2CCCC(=O)N2CCCC2)cc1 — lower, -27.9%
- CC(=O)N1CCC(C(=O)Nc2ccc3c(c2)CCC3)CC1 — lower, 3.21%
- CCC(C)(C)n1nnnc1C(C(C)C)N(CCN1CCOCC1)Cc1cc2cccc(C)c2[nH]c1=O (stereo not drawn) — lower, -11.8%
- O=C(CN1CCC(O)(c2ccccc2)CC1)Nc1ccc2c(c1)OCCO2 — lower, 6.68%
- Cc1cc(C)c(OCC(O)CNC(C)(C)C)c(C)c1.Cl (stereo not drawn) — lower, 2.59%
- CCN1C(=O)c2cccc3c(S(=O)(=O)NCc4cccnc4)ccc1c23 — lower, -3.21%
- CN(Cc1ccc(F)cc1)Cc1nc(-c2ccccc2)no1 — lower, -6.11%
- O=C(CCNS(=O)(=O)c1ccc2c(c1)CCC(=O)N2)NCc1ccc2c(c1)OCO2 — lower, 0.608%
- Cc1ccc(NC(=O)COC(=O)C(NS(=O)(=O)c2ccc(Cl)cc2)C(C)O)cc1C (stereo not drawn) — lower, 6.76%
- Cc1cc(C(=O)NCCCN2CCN(C3CCCCC3)CC2)n(-c2ccccc2)n1 — lower, 2.76%
- O=C(CCn1c(=S)oc2ccccc21)Nc1ccc(F)cc1 — lower, -7.7%
- CCN(CC(=O)Nc1ccc2c(c1)OCCO2)C(=O)c1ccc(S(=O)(=O)N(C)C)cc1 — lower, 7.76%
- c1ccc(-c2csc(Cc3nnc4n3CCCCC4)n2)cc1 — lower, -36.8%
- CC(C)C(C)NC(=O)COn1nnc2ccc(S(=O)(=O)N3CCOCC3)cc21 (stereo not drawn) — higher, 27.1%
- Cc1cc(NC(=O)CSCC(=O)N(C)Cc2ccc(Cl)c(Cl)c2)no1 — lower, -9.94%
- O=C(O)c1ccc(-n2[nH]c3c(c2=O)CCCC3)cc1 — lower, 9.74%
- CCOC(=O)C1CCN(C(c2cccc(F)c2)c2sc3nc(C)nn3c2O)CC1 (stereo not drawn) — lower, -6.85%
- O=C1CCCC2=C1C(c1ccc(Cl)cc1)n1c(s/c(=C\c3ccc4ccncc4c3)c1=O)=N2 (stereo not drawn) — lower, 5.13%
- COc1ccc(N(C(=O)c2cccnc2)S(=O)(=O)c2cccc([N+](=O)[O-])c2)cc1 — lower, -33.8%
- O=C(Nc1cccc(Cl)c1)c1ccncc1 — lower, 5.13%
- Cn1cc(C[C@H](NC(=O)OC(C)(C)C)C(=O)N[C@H](CO)Cc2ccccc2)c2ccccc21 — lower, -0.554%
- COc1ccc(C(=O)COc2ncnc3cc(Cl)ccc23)cc1 — higher, 13.3%
- O=C(NNC(=O)C1CC1c1ccccc1)c1ccccc1[N+](=O)[O-] (stereo not drawn) — lower, -12.8%
- CN(C(=O)COC(=O)CSCc1cccc(Cl)c1)c1c(N)n(Cc2ccccc2)c(=O)[nH]c1=O — higher, 23.9%
- CON/C=C(\C=Nc1ccc(C(F)(F)F)cc1)c1ncc(C(F)(F)F)cc1Cl — lower, -3.76%
- Cc1ccc(C(=O)Nc2c(C)cc(-c3ccccc3)oc2=O)cc1 — lower, 2.87%
- O=C(CCn1c(=O)c2ccccc2n(Cc2ccccc2)c1=O)NC1CCN(Cc2ccccc2)CC1 — lower, -42.5%
- Cc1noc(/C=C/N(C)C)c1S(=O)(=O)N1CCCC(C(=O)NCc2ccc(F)cc2)C1 (stereo not drawn) — lower, 0.399%
- COc1ccc(NC(=O)c2ccc3c(c2)CCN3S(=O)(=O)c2ccccc2)cc1 — lower, -1.18%
- Cc1ccc2c(c1)CCCN2C(=O)NC1CCCCC1 — lower, -4.35%
- COc1cccc(NC(=O)c2cc(-c3ccccn3)nc3ccccc23)c1 — lower, 9.45%
